In PubChem BioAssay AID1159614 (National Center for Advancing Translational Sciences (NCATS), 2016):
In all, about 45,000 compounds went through this assay and about 65 (0.1%) were called active. Calls come from the whole dose curve; as a rule, active = well fitted activation curve with a large enough effect; inconclusive = small, poorly fitted or top-dose-only effect; inactive = no such curve, though single readings can be large or run the other way. This is one part of the list.

Biological target: Galactocerebrosidase (Homo sapiens) (UniProt P54803)
Test: A Novel Cell-Based Assay to Identify Small Molecules for B -Galactocerebrosidase; note: 0% is about no effect; nearly all actives have a fitted effect of over 65% in size
Conditions: 145M-Twi-hGALC-G270D cells (Twitcher mouse brain line with human GALC G270D), HMU-beta-Gal fluorescence, 48 h; series mostly up to 57.5 µM; activation: at the top concentration
Summary of the method: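 Fluorescence readout: HMU-β-gal cleavage by mutant GALC (0.1 mM final, citrate/phosphate pH 5.2 with 1 mg/mL taurocholate), stopped with carbonate/bicarbonate plus Triton X-100. Cells: murine Twitcher 145M-Twi expressing human G270D GALC; qHTS for activators.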

Sequence of UniProt P54803 (P54803 whole entry, looked up): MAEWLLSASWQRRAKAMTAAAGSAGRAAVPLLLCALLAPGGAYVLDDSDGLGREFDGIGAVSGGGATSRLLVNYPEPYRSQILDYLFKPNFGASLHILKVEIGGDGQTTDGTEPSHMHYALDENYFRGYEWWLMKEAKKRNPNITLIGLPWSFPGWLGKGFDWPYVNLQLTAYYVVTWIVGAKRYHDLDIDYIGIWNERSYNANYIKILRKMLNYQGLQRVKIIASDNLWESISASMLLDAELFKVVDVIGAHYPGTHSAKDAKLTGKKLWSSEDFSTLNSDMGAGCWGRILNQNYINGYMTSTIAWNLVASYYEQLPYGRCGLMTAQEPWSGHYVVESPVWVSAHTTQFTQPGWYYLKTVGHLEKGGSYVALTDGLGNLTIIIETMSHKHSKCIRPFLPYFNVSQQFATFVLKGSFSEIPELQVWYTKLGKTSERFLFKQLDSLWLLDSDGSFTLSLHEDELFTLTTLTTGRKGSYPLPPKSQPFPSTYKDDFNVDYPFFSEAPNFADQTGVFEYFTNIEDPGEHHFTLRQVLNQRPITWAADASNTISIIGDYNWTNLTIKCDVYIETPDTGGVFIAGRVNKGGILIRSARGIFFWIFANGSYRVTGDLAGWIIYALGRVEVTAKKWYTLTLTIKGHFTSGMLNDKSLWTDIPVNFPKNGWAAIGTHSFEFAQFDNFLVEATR

activation, inactive:
COc1ccccc1CNC(=O)CCC1N=C2c3ccccc3N=C(SCC(N)=O)N2C1=O (centres undefined) -24.6%, Cc1cccc(CNC(=O)C(=O)Nc2ccccc2C)c1 -0.988%, Fc1ccccc1-n1ncc2c1ncn1nc(-c3ccccc3Cl)nc21 -7.23%, Cc1ccc(CNC(=O)c2ccc(CSCc3ccccc3Cl)o2)cc1 -7.95%, CC(=O)c1cccc(NC(=O)C2=CC(c3ccc4c(c3)OCO4)=NS(=O)(=O)N2C)c1 -8.96%, Cc1ccc(NC(=O)c2c(NC(=O)Cc3ccccc3)sc3c2CCC3)cc1 -9.74%, CCN1C(=O)c2ccccc2Sc2ccc(NC(=O)Nc3ccccc3OC)cc21 -10%, Cc1cccc(C)c1NC(=O)CSc1nc2ncccc2o1 -8.05%, Cc1ccc(S(=O)(=O)NCC(c2ccc(N(C)C)cc2)N2CCc3ccccc32)cc1C (centres undefined) -4.35%, CCc1ccc(CNC(=O)C2CCN(c3nc4ccccc4nc3C(F)(F)F)CC2)cc1 -13.6%, CC(=O)N1CCc2cc(CNC(=O)Nc3cc(Cl)ccc3C)ccc21 -5.74%, COc1ccc(Cn2c(CCC(=O)Nc3cccc(OC)c3)nc3cccnc32)cc1 -8.56%, COc1ccc(NC(=O)Cn2c(=O)n(Cc3ccco3)c(=O)c3cc(OC)c(OC)cc32)cc1 -3.14%, CN(C)c1ccc(-c2nc3cnccn3c2Nc2cccc(C(F)(F)F)c2)cc1 2.48%, COc1cccc(CNc2nccn(-c3cc(C)cc(C)c3)c2=O)c1 -8.85%, COCCn1c(CCC(=O)Nc2ccc(C)c(Cl)c2)nc2cccnc21 -14.7%, CCSc1ncc(Cl)c(C(=O)Nc2ccc(S(=O)(=O)N3CCC(C)CC3)cc2)n1 -23.7%, Cc1c(Cl)cccc1NC(=O)Cn1cc(C(=O)C2CCCCC2)c2ccccc21 -17.2%, Clc1ccc2nc(NCc3ccccc3)c3nncn3c2c1 -6.41%, Cc1cc2c(cc1S(=O)(=O)CCC(=O)N1CCCC(C)C1)OCC(=O)N2 (centres undefined) -0.814%, Cc1ccc(NC(=O)CSC2=Nc3ccccc3C3=NC(Cc4ccccc4)C(=O)N23)cc1C (centres undefined) -43.5%, CCCCN(CCCNC(=O)c1ccc(Sc2ccc(Cl)cc2)c(NC(C)=O)c1)c1ccccc1 -13.5%, Cc1ccc(-n2ncc(C(=O)NCCN3CCOCC3)c2C2CCN(C(=O)OC(C)(C)C)CC2)c(C)c1 -19%, CCc1ccc(NC(=O)CN2CCSc3ccc(S(=O)(=O)N4CCCC4)cc32)cc1 -30%, COC(=O)c1cnn(-c2ccc(C(=O)Nc3ccc(OC(F)(F)F)cc3)cc2)c1N -9.01%, COc1ccc(/C=C/C(=O)c2ccc(OC)cc2OC)cc1 -12.8%, COc1ccc(C(CNC(=O)c2cccc([N+](=O)[O-])c2)N2CCOCC2)cc1 (centres undefined) -6.25%, COc1ccc(CCNc2nc(-c3ccc(F)cc3)cc(C(F)(F)F)n2)cc1OC -0.163%, Cc1ccc(Cc2cnc(NC(=O)C3Cc4ccc(C)cc4C(=O)O3)s2)cc1 (centres undefined) -9.26%, Cc1ccc(CNC(=O)Cn2c(=O)ccc3cc(S(=O)(=O)N4CCCC4)ccc32)cc1 -16.4%, CC(NC(=O)c1c2c(nc3ccccc13)C(=O)N(C1CCCCC1)C2)c1ccccc1 (centres undefined) -14.3%, CCOc1ccc(S(=O)(=O)c2cn(C)c3ccccc3c2=O)cc1 22.5%, CC(C(=O)O)c1ccc(C(=O)c2cccs2)cc1 (centres undefined) -14%, CN(C)c1ccc(NC(=O)CN2C(=O)c3ccccc3Sc3ccc(C(=O)N4CCCC4)cc32)cc1 -15.7%, CCOC(=O)C1CCN(C(=O)Cn2ncc3c4ccccc4n(Cc4ccccc4F)c3c2=O)CC1 -4.1%, CCN(C(=O)c1cccn(Cc2ccccc2C)c1=O)c1ccccc1 -3.57%, Cc1ccc(NC(=O)CN2C(=O)CCn3nc(-c4cccn4C)cc32)c(Cl)c1 -4.04%, O=c1n(Cc2ccc(F)cc2)nc2n1-c1cc(Cl)ccc1OC2 -8.23%, Cc1ccc(F)cc1NC(=O)c1ccc(Cn2nc(N3CCN(c4ccccc4)CC3)ccc2=O)o1 -9.38%, Cc1nn(CCCC(=O)NCc2cccc(Cl)c2)c(=O)c2c1sc1ccccc12 -15.1%, Cc1nnc(NC(=O)CSc2nnc3c(n2)[nH]c2ccccc23)s1 -11%, O=C(Cn1c(-c2cccs2)cc2cc(F)ccc21)NCCCN1CCN(c2ccccc2F)CC1 -8.19%, Cc1cccc(N2CCN(CCCNC(=O)c3sc4ncccc4c3-n3cccc3)CC2C)c1 (centres undefined) -26.4%, Cc1oc(-c2ccc(C(=O)NCCc3ccc(Cl)cc3)cc2)nc1CSc1ccccc1 -16.7%, COc1ccc(-n2nc(C(=O)NCCc3ccc(OC)c(OC)c3)c3c4ccccc4n(C)c3c2=O)cc1Cl -5.34%, COc1ccc(-c2cn3nc(N4CCC(C(=O)Nc5ccc(Cl)cc5C)CC4)sc3n2)cc1 4.44%, O=C(Cn1cc(SCc2ccccc2)c2ccccc21)N1CCCCCC1 -5.96%, CCOc1ccccc1CNC(=O)c1cnc2c(-c3ccc(OCC)c(OCC)c3)c(C)nn2c1C -7.97%, COc1ccc(NC(=O)C2CCN(c3nc4ccccc4nc3C(F)(F)F)CC2)cc1 -13.4%, O=C(NCc1ccccc1)c1ccc2c(c1)N(Cc1cccc(Cl)c1)C(=O)c1ccccc1S2(=O)=O -10.3%, Cc1ccc(S(=O)(=O)n2nc(C)c(S(=O)(=O)N3CCC(C)CC3)c2C)cc1 -2.25%, CCn1ccc2cc(S(=O)(=O)N3CCC(C(=O)NCc4ccc(OC)cc4)CC3)ccc21 -16.5%, CCOC(=O)C1CCC(CN(Cc2c(Cl)cccc2Cl)S(=O)(=O)c2ccc(Cl)cc2)CC1 (centres undefined) -15.3%, Cc1ccccc1CN1C(=O)c2ccccc2Sc2ccc(C(=O)OCc3ccco3)cc21 -17.6%, Cc1ccc2nc(-c3ccc(Cl)c(NC(=O)c4cccc([N+](=O)[O-])c4C)c3)oc2c1 -1.28%, Cc1ccc(-c2nc(SCC(=O)N3CCc4ccccc43)c3c(=O)n(C)c(=O)n(C)c3n2)cc1 -3.56%, Cc1ccc(N2CCN(c3c(CN4CCCC4)c(=O)oc4ccccc34)CC2)c(C)c1 -14.8%, COc1ccc(Cn2c(SCC(=O)Nc3ccc(OC)cc3)nc3ccccc32)cc1 7.7%, O=C(COCc1cc(-c2ccco2)on1)Nc1cccc(O)c1 -2.71%, COc1cc2ncnc(Nc3ccc(F)c(Cl)c3)c2cc1OCCCN1CCOCC1 -12.2%, COc1cc(/C=C/c2nc3cc(Cl)ccc3c(=O)n2-c2cccc(C(F)(F)F)c2)cc(OC)c1OC -3.27%, COc1cc(NC(=O)Nc2nnc(N3CCCCCC3)s2)cc(OC)c1 -4.48%, CC1CCCN(Cc2c(O)ccc3c(=O)c(Oc4ccc(C(C)(C)C)cc4)c(C(F)(F)F)oc23)C1 (centres undefined) -6.1%, Cn1c(=O)c(=O)n(C)c2cc(S(=O)(=O)CCC(=O)Nc3cccc(C(F)(F)F)c3)ccc21 -6.63%, COc1cc(OC)c(N(C)C(=O)C2CCCN(c3ncnc4c3nc3n4CCCCC3)C2)cc1Cl (centres undefined) -13.3%, CN(C)S(=O)(=O)c1ccc2c(c1)N(CC(=O)N1CCN(c3cccc(Cl)c3)CC1)CCS2 -25.1%, Cc1ccc(-c2nc3c(cnn3-c3ccccc3)c(=O)n2-c2cccc(Cl)c2)cc1 -10.4%, CCOc1ccc(NC(=O)[C@H]2O[C@@H]3OC(C)(C)O[C@@H]3[C@H]3OC(C)(C)O[C@H]32)cc1 -18.9%, Cc1cccc(NC(=O)CSc2nc(=O)n(Cc3ccco3)c3c2CCC3)c1C -7.22%, CN1CCC[C@@H]1CCO[C@](C)(c1ccccc1)c1ccc(Cl)cc1 -12.3%, CCOc1ccccc1CNC(=O)c1cn(-c2ccc(OC)cc2)c(=O)c2ccccc12 1.93%, COc1cccc(CNC(=O)CSc2n[nH]c(-c3ccccc3Cl)n2)c1OC -9.51%, COc1cccc(C2=C(C(C)=O)Sc3nnc(C4CCCCC4)n3N2C(C)=O)c1 -11.3%, CCOc1ccc(CN(C(=O)c2nc(SC)ncc2Cl)C2CCS(=O)(=O)C2)cc1 (centres undefined) -18.7%, CC1CCCCN1CCCNC(=O)c1ccc2c(c1)sc1nc(-c3ccc(F)cc3)cn12 (centres undefined) -12.7%, CCc1ccc(Oc2c(C(F)(F)F)oc3c(CN4CCN(CC)CC4)c(O)ccc3c2=O)cc1 -12.2%, O=C(Nc1nc2ccc(S(=O)(=O)N3CCCC3)cc2s1)c1ccc(F)cc1 -8.64%, Cc1ccc2cc3cc(C(=O)N4CCN(c5ccccc5)CC4)oc3nc2c1 -6.99%, Cc1cc(C)cc(NC(=O)C(=O)NCCCN2CCOCC2)c1 -14.7%, O=c1c(N2CCN(c3cccc(Cl)c3)CC2)csc2ccccc12 -15.8%, CCc1nn(CC(=O)NCc2ccccc2Cl)c(=O)c2cc3ccccc3n12 -17.9%, COc1ccc(-c2nc3nc(C)cc(N4CCN(c5cccc(C(F)(F)F)c5)CC4)n3n2)cc1 0.691%, COCCCNC(=O)c1ccc(Cn2c(=O)c3ccccc3n(CC(=O)Nc3ccc(C)cc3C)c2=O)cc1 5.44%, CCOC(=O)N1CCc2c(sc3c2c(=O)n(-c2ccc(Cl)cc2)c(=O)n3Cc2cccc(OC)c2)C1 -10%, CCOC(=O)c1noc2ncnc(N3CCN(c4cccc(Cl)c4)CC3)c12 -17.9%, Cc1cccc2c1-c1sc(C(=O)NCc3ccc(Cl)cc3)cc1CO2 -14.5%, Cc1cccc(N2CC(c3nc4ccccc4n3CCC3CCCCC3)CC2=O)c1 (centres undefined) -36.7%, CCc1ccc(S(=O)(=O)c2nnn3c2nc(Nc2cc(OC)cc(OC)c2)c2cc(Cl)ccc23)cc1 -8.1%, CCN(Cc1ccccc1)C(=O)c1cc2c(=O)oc3ccc(C)cc3c2s1 -15%, Cc1ccc(-c2nc(S(=O)(=O)c3ccc(C)cc3)c(SCC(=O)Nc3ccc(F)cc3)o2)cc1 -2.89%, COc1ccc(CCNC(=O)c2cc3c(s2)-c2c(C)cccc2OC3)c(OC)c1 -7.98%, CCOc1ccc(C(=O)Nc2ccccc2C(=O)OCc2cc(=O)n3nc(C4CC4)sc3n2)cc1 -5.74%, Cc1cc(C)cc(NC(=O)Cn2nnc(C(=O)NCc3ccccc3Cl)c2N)c1 -21.5%, COc1ccc(NC(=O)Nc2cccc(OCc3cc(=O)n4cccc(C)c4n3)c2)c(OC)c1 -0.946%
